US20230227428A1 (Anaxis Pharma Pty Ltd, priority 2020, published 2023)

Legend:
U937 cells = assay: Counter screen: cell viability of U937 cells treated with compound without the TSQ cocktail (off-target effect); conditions: Homo sapiens, U-937, compound in DMSO without the TSQ cocktail, cell viability by CelltiterGlo, read-out: Off-target effect (IC50 cell-based assay)
Description: (§1) Cell Line ID: U937 human histiocytic leukemia cell line.
(§2) The cellular assay was carried out according to the following steps: • 1. Each well was prepared by sequential addition of: • a. DMSO (control; columns 1-2 and 23-24) or compound in DMSO—addition was performed using acoustic transfer of nl volumes of stock compound to give final test concentrations of 36, 12, 4, 1.3, 0.44, 0.148, 0.049, 0.016, 0.005 and 0.002 μM. All wells were backfilled with DMSO to a final total volume in the well of 100 nl. • b. Following compound/DMSO addition in step (a), 40 μL of cell suspension (5×10^5 cells/mL) was added to provide a final cell concentration of 20,000 cells per well, and • c. Following cell addition in step (b), 10 μL of 5×TSQ cocktail (except to positive controls; […]) was added to each well. • 2. After 48 hours, plate was removed from the 37° C. incubator and equilibrated to room temperature for 45 minutes. • 3. 15 μL of room temperature CellTitre-Glo2™ (Promega™) was added to each well. • 4. Shook plates for 2 minutes (˜600 rpm) and incubated at room temperature for 15 minutes to allow signal to stabilise. • 5. Read luminescence readout on a plate reader.
(§3) Curve fitting: 10-point titration curves are fitted with the 4-parameter logistic nonlinear regression model and the IC50 reported is the inflection point of the curve
Counter screen: In parallel, all compounds were tested for their ability to affect cell viability. The same U937 cells were treated with compound in DMSO without the TSQ cocktail. This counter screen enabled evaluation of off-target effects. In this case, cell viability was measured by CelltiterGlo.

MLKL (full length) = target: T1, MLKL (full length) (Homo sapiens, UniProt Q8NB16); assay: KINOMEscan binding affinity assay, MLKL; conditions: equilibrium dissociation constant
T1 construct: purchased DiscoverX (KINOMEscan service); host or cells: E. coli BL21-derived host (T7 phage) or HEK-293
T1 sequence (Q8NB16 1-471): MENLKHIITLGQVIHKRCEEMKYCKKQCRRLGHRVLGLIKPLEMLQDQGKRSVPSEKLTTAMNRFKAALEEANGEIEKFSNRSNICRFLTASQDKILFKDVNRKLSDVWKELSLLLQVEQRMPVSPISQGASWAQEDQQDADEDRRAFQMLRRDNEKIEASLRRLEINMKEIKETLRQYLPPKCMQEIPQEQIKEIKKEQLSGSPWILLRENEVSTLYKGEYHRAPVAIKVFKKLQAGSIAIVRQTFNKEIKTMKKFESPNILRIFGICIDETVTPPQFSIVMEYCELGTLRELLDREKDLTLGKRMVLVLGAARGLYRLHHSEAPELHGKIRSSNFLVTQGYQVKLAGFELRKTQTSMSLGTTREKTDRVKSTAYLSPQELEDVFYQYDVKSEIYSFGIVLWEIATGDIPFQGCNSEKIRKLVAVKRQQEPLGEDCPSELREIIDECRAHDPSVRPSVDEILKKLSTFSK
Source text: (§4) The Hill Slope was set to −1.

RIP1 = target: T2, RIP1 (Homo sapiens, UniProt Q13546); assay: KINOMEscan binding affinity assay, RIP1; conditions: equilibrium dissociation constant
T2 construct: purchased DiscoverX (KINOMEscan service); host or cells: E. coli BL21-derived host (T7 phage) or HEK-293
T2 sequence (Q13546 1-671): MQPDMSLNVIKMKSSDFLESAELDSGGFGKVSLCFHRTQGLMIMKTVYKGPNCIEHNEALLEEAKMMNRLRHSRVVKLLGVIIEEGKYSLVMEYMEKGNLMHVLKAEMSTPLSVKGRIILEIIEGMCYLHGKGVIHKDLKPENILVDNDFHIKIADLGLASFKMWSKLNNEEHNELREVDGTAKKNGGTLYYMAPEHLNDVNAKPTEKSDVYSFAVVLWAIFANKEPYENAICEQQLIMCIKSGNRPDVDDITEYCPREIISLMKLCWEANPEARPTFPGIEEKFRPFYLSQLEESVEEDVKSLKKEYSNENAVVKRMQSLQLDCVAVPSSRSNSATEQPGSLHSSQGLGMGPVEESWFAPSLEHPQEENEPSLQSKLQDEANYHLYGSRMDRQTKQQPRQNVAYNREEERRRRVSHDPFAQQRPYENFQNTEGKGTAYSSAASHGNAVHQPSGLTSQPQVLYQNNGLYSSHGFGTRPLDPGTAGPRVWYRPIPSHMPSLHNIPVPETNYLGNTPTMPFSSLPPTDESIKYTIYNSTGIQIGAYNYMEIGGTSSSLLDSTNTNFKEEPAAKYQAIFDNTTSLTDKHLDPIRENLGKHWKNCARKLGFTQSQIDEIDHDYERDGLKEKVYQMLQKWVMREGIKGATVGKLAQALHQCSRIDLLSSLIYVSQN
Source text: as §4

RIP3 = target: T3, RIP3 (Homo sapiens, UniProt Q9Y572); assay: KINOMEscan binding affinity assay, RIP3; conditions: equilibrium dissociation constant
T3 construct: purchased DiscoverX (KINOMEscan service); host or cells: E. coli BL21-derived host (T7 phage) or HEK-293
T3 sequence (Q9Y572 whole entry): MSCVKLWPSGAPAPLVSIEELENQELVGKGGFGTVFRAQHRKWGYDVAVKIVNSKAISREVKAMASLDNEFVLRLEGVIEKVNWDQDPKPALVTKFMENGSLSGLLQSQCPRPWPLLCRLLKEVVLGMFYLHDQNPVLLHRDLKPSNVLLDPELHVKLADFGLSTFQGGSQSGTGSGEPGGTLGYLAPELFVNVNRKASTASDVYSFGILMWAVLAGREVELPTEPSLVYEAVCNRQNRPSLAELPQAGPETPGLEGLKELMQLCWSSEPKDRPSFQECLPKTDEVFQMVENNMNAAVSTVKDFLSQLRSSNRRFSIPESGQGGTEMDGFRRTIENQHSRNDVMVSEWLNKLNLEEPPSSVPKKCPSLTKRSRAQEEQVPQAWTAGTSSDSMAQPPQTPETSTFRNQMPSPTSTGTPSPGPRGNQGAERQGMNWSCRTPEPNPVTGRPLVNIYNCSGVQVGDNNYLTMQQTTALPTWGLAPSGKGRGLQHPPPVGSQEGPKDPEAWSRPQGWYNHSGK
Source text: as §4

[1] = tested on: U937 human histiocytic leukemia cell line; assay: Cellular assay: inhibition of TSQ induced necroptosis, 384 well plate format; conditions: U-937, U937 cells, TSQ cocktail (TNF, Smac mimetic, Q-VD-OPh), 48 hours, CellTitre-Glo, read-out: Inhibition of TSQ-induced necroptosis (IC50 cell-based assay)
Description: Cellular Assay: Screening Compounds for Inhibition of TSQ Induced Necroptosis, 384 Well Plate Format.
as §1
Cell Concentration (cells/well): Final cell density is 20000 cells per well.
Cell growth medium: HT-RPMI medium+7.4% Fetal Bovine Serum (FBS). Cells are cultured in Corning 150 cm^2 tissue culture flasks with vented caps at 37° C./5% CO2.
Incubation: Plates were incubated at 37° C./5% CO2 in a humidified incubator for 48 hours following addition of compounds and death stimuli (TSQ cocktail).
Compound concentration: 36 μM starting concentration, 1:3 dilution, 10 point
DMSO final concentration (% v/v): 0.3%.
Compounds in TSQ cocktail (T: TNF; S: Smac mimetic; Q: Q-VD-OPh) and their final concentrations:
hTNF-Fc (100 ng/ml)—produced by standard procedures as shown in Bossen et al., J Biol Chem, 2006, 281(20), 13964-13971.
Compound A (500 nM)—Smac mimetic, Tetralogic and SYNthesis med chem Q-VD-OPh (10 μM)—MP Biomedicals
as §2
Percent viability was calculated for each compound according to equation (2):
% viability=100×((RawData−NSA)/(TA−NSA) (2)
wherein RawData is the readout of any cell containing a compound of the invention TA is the total activity provided by the luminescence readout from DMSO only wells (columns 2 and 24)=100% viability NSA is the non-specific activity provided by DMSO+TSQ wells (columns 1 and 23)=0% viability
as §3
Analysis: Data was loaded into Dotmatics™ and visualised using the Tibco® Spotfire™ software. points titration curve were fitted with the 4 parameter logistic nonlinear regression model and the IC50 reported reflect the inflection point of the curve for curve fitting.
Assay involving the TSQ cocktail (T: TNF; S: Smac mimetic; Q: Q-VD-OPh): TSQ treatment ensures that cells specifically undergo necroptotic cell death. TNF activates the TNF receptor, Smac mimetic directs the signal away from proinflammatory signaling and toward the RIP1/RIP3-mediated cell death pathways, and Q-VD-OPh ensures that the apoptotic response is blocked leaving only the programmed necrosis response. The compounds' activity (solution in DMSO) tested in this TSQ-induced assay was evaluated by determining the number of viable cells in culture by measuring the amount of ATP present as measured by CelltiterGlo.

Compound	Kd (MLKL (full length))	Kd (RIP1)	Kd (RIP3)	IC50 (U937 cells)	IC50 [1]
NC(=O)c1c(-c2ccc(NC(=O)N3CCCC(c4cc(F)cc(F)c4)C3)cc2)n[nH]c1Nc1cccc(C(F)(F)F)n1 (stereo not shown) [Compound 81, N-(4-(4-carbamoyl-5-((6-(trifluoromethyl)pyridin-2-yl)amino)-1H-pyrazol-3-yl)phenyl)-3-(3,5-difluorophenyl)piperidine-1-carboxamide]	0.1 to 1 µM	< 0.1 µM	> 1 µM	> 1 µM	< 0.1 µM
CN(C(=O)Nc1ccc(-c2n[nH]c(Nc3ccccn3)c2C(N)=O)cc1)c1ccccc1 [Compound 48, 3-(4-(3-methyl-3-phenylureido)phenyl)-5-(pyridin-2-ylamino)-1H-pyrazole-4-carboxamide]	0.1 to 1 µM	> 1 µM	> 1 µM		> 1 µM
NC(=O)c1c(-c2ccc(NC(=O)N3CCc4ccccc4C3)cc2)n[nH]c1Nc1ccccn1 [Compound 47]	0.1 to 1 µM	> 1 µM	> 1 µM		> 1 µM
NC(=O)c1c(-c2ccc(NC(=O)N3CCCC(c4ccc(F)c(F)c4)C3)cc2)n[nH]c1Nc1cccc(C(F)(F)F)n1 (stereo not shown) [Compound 83, N-(4-(4-carbamoyl-5-((6-(trifluoromethyl)pyridin-2-yl)amino)-1H-pyrazol-3-yl)phenyl)-3-(3,4-difluorophenyl)piperidine-1-carboxamide]	0.1 to 1 µM	< 0.1 µM	> 1 µM	> 1 µM	< 0.1 µM
NC(=O)c1c(-c2ccc(NC(=O)N3CCCC(c4cccc(F)c4)C3)cc2)n[nH]c1Nc1cnccn1 (stereo not shown) [Compound 95, N-(4-(4-carbamoyl-5-(pyrazin-2-ylamino)-1H-pyrazol-3-yl)phenyl)-3-(3-fluorophenyl)piperidine-1-carboxamide]	< 0.1 µM	< 0.1 µM	0.1 to 1 µM	> 1 µM	< 0.1 µM
Cc1cc(Nc2[nH]nc(-c3ccc(NC(=O)N4CCCC(c5ccccc5)C4)cc3)c2C(N)=O)cc(C)n1 (stereo not shown) [Compound 87, N-(4-(4-carbamoyl-5-((2,6-dimethylpyridin-4-yl)amino)-1H-pyrazol-3-yl)phenyl)-3-phenylpiperidine-1-carboxamide]	< 0.1 µM	0.1 to 1 µM	> 1 µM	> 1 µM	0.1 to 1 µM
NC(=O)c1c(-c2ccc(NC(=O)N3CCCC(c4ccc(C(F)(F)F)cc4)C3)cc2)n[nH]c1Nc1cnccn1 (stereo not shown) [Compound 93, N-(4-(4-carbamoyl-5-(pyrazin-2-ylamino)-1H-pyrazol-3-yl)phenyl)-3-(4-(trifluoromethyl)phenyl)piperidine-1-carboxamide]	0.1 to 1 µM	0.1 to 1 µM	> 1 µM	> 1 µM	0.1 to 1 µM

Further lines, with some results ahead:

Kd (MLKL (full length))	Kd (RIP1)	Kd (RIP3)	Compound	IC50 (U937 cells)	IC50 [1]
0.1 to 1 µM	0.1 to 1 µM	> 1 µM	CNC(=O)c1cc(Nc2[nH]nc(-c3ccc(NC(=O)Nc4ccc(OC(F)(F)F)cc4)cc3)c2C(N)=O)ccc1C [Compound 115, 5-((4-methyl-3-(methylcarbamoyl)phenyl)amino)-3-(4-(3-(4-(trifluoromethoxy)phenyl)ureido)phenyl)-1H-pyrazole-4-carboxamide]		< 0.1 µM
0.1 to 1 µM	< 0.1 µM	> 1 µM	COc1ccc(Nc2[nH]nc(-c3ccc(NC(=O)Nc4ccc(OC(F)(F)F)cc4)cc3)c2C(N)=O)cc1 [Compound 111, 5-((4-methoxyphenyl)amino)-3-(4-(3-(4-(trifluoromethoxy)phenyl)ureido)phenyl)-1H-pyrazole-4-carboxamide]		< 0.1 µM
0.1 to 1 µM	< 0.1 µM	> 1 µM	COc1cccc(Nc2[nH]nc(-c3ccc(NC(=O)Nc4ccc(OC(F)(F)F)cc4)cc3)c2C(N)=O)c1 [Compound 105, 5-((3-methoxyphenyl)amino)-3-(4-(3-(4-(trifluoromethoxy)phenyl)ureido)phenyl)-1H-pyrazole-4-carboxamide]		0.1 to 1 µM
0.1 to 1 µM	0.1 to 1 µM	> 1 µM	NC(=O)c1c(-c2ccc(NC(=O)Cc3ccccc3C(F)(F)F)cc2)n[nH]c1Nc1ccccn1 [Compound 7, 3-(4-(2-(2-(trifluoro-methyl)phenyl)acetamido)phenyl)-5-(pyridin-2-ylamino)-1H-pyrazole-4-carboxamide]		0.1 to 1 µM
0.1 to 1 µM	> 1 µM	> 1 µM	Cc1cccc(Nc2[nH]nc(-c3ccc(NC(=O)Cc4ccccc4)cc3)c2C(N)=O)n1 [Compound 39, 3-(4-(2-phenylacetamido)phenyl)-5-(6-methylpyridin-2-ylamino)-1H-pyrazole-4-carboxamide]		0.1 to 1 µM
< 0.1 µM	> 1 µM	> 1 µM	NC(=O)c1c(-c2ccc(NC(=O)Nc3ccc(OC(F)(F)F)cc3)cc2)n[nH]c1Nc1cnccn1 [Compound 107, 5-(pyrazin-2-ylamino)-3-(4-(3-(4-(trifluoromethoxy)phenyl)ureido)phenyl)-1H-pyrazole-4-carboxamide]	> 1 µM	< 0.1 µM
